# Laboratory results as given in ChEMBL document CHEMBL4888484, “Replenishing the malaria drug discovery pipeline: Screening and hit evaluation of the MMV Hit Generation Library 1 (HGL1) against asexual blood stage Plasmodium falciparum ,using a nano luciferase reporter read-out” (2022).
# Among all 150,000 compounds or so, about 540 (0.36%) showed an effect of 50% or more. The list shows a part of the results.
# Tested on: Plasmodium falciparum
# Assay: Primary screen in NF54 nanoGlo assay, in single point, at 2uM, 72h; a lower Z score goes with more inhibition
# Type: functional, Erythrocyte
# Settings: timepoint 72 hour
SMILES,% Inhibition,Z score
COc1cccn(CC(=O)N2CCC(Cn3cc(C)cn3)CC2)c1=O,-7%,1.37
COCCNC(=NC1CC1)NCc1ccc(N2CCCC2)cc1,4%,-0.7
CCc1nc(C)c(C(=O)N(Cc2cccnc2)Cc2ccsc2)o1,2%,-0.31
NCCOc1ccc(F)cc1C(=O)NCc1ccc(-c2ncon2)cc1,-26%,4.24
CC(C)[C@H]1NC(=O)[C@@H]2C[C@H](NC(=O)c3ccc4ccccc4c3)CN2C1=O,-11%,1.28
Cc1nc(NC(=O)c2cc3c(F)cccc3s2)sc1-c1ccccn1,-8%,1.05
Cc1cnccc1CN(C)C(=O)c1ccc(N)nc1,-4%,0.49
Cc1ccc(-c2nccn3cc(C(=O)NCc4cnccn4)nc23)cc1,-8%,1.47
CC(C)C(=O)N1CCC[C@H](NS(=O)(=O)c2ccc3[nH]cnc3c2)C1,1%,-0.19
CCOCCC(=O)NCc1cc(OC)c(O)cc1Br,-19%,2.02
CCOc1ccc(CC(=O)N2CC3(C[C@H](CC(=O)N4CCOCC4)CO3)C2)cc1,-1%,0.12
O=C(CCC(=O)N1CCC(O)CC1)N[C@@H]1C[C@H]1c1cccc(Cl)c1,-8%,0.82
CCN1C(=O)COc2ccc(C(=O)NC(C)(C)C)cc21,-12%,1.59
CN(C)c1ccc(CNC(=O)[C@@H]2CC=CCC2)cc1F,-2%,0.3
Cc1cc([C@H](C)NC(=O)NCc2ncnn2C)cc(C)c1F,-6%,0.61
C#CCN(C(=O)c1cc(Cl)c(Cl)[nH]1)c1nccs1,1%,-0.15
CCCCS(=O)(=O)N[C@@H](C)c1nc(-c2ccccn2)no1,-13%,1.17
COC(=O)N1CC[C@H](c2ccsc2)C1,-5%,1.01
O=C(Nc1ccc(Br)cc1Br)N1CC[C@H]2CCCC[C@H]21,-32%,3.79
COc1ccc2c(c1)N1CCN(c3ccc(C)cc3)CC1C(C(=O)NCCN1CCCCC1)C2 (configuration not stated),-11%,1.31
Cn1cc(CCNCc2ccnn2-c2ccc(F)cc2)nn1,-11%,1.71
CC(C)(C)C1CCN(Cc2cnc(C3CC3)s2)CC1O (configuration not stated),1%,-0.14

SMILES,% Inhibition,Z score
C=CC[C@]1(CO)CCCN(C(=O)c2cc3c(n(C)c2=O)CCCC3)C1,4%,-0.86
CN(CC(=O)NCCc1ccccc1)c1nnc(N2CCCC2=O)s1,-2%,0.39
COc1cccc(NC(=O)Nc2cnc(OC)nc2)c1,-5%,0.86
Cc1csc(CNC(=O)c2ccc3c(c2)CC(=O)N3)n1,-11%,1.87
O=C(CCN1CCC(N2CCOCC2)CC1)Nc1cccc(Cl)c1,-15%,2.59
O=C(NCc1ccc2c(c1)OCO2)c1ccnc(OCC2CCOCC2)c1,-17%,3.2
O=C(O)[C@@]1(CC2CC2)CCCN(Cc2ccccc2OCCO)C1,-11%,1.87
c1ccc(-n2nnnc2-c2cn[nH]c2-c2cccs2)cc1,-8%,0.92
Fc1ccc2[nH]cc(Cc3nnn[nH]3)c2c1,5%,-0.93
COc1cccc(-n2c(=O)n(CC(C)C)c(=O)c3c2ncn3Cc2ccc(F)c(F)c2)c1,-24%,2.3
COc1ccc(CNC(=O)C2C(=O)NCC2C(C)(C)C)cc1 (configuration not stated),-2%,0.37
CCCN(Cc1ccc(OCC(C)C)c(OC)c1)C(=O)c1cc(Cl)c[nH]1,-11%,1.35
Cc1nn(C)c(=O)n1-c1ccc(OCc2ccccc2)cc1,-7%,1.08
O=C(C[C@H]1COCCN1C(=O)c1cccc2cc[nH]c12)c1ccco1,-4%,0.58
O=C(c1ccccc1)N1CCOC[C@H](OCc2ccccc2)C1,32%,-3.59
Cc1cnn(C)c1C(=O)N1CC[C@@](CO)(Cc2ccc(F)cc2)C1,0%,0.06
c1ccc([C@@H]2NCCOc3ccccc32)cc1,2%,-0.32
O=C(CN1CCCC1=O)N1CCN(Cc2ccc(Cl)s2)CC1,-5%,0.62
COc1ccc(-n2ccnc2CN[C@H]2CCCN(c3ncccn3)C2)cc1,-7%,0.95
O=C([C@@H]1CCCO1)N1CCCN(S(=O)(=O)NCc2ccccc2)CC1,2%,-0.28
Cc1nc(CC(=O)NCc2nc(-c3ccco3)n[nH]2)cs1,-15%,2.12
Cc1cc(NCc2csc(N(C)C)n2)nc(Nc2cccc(O)c2)n1,-3%,0.61

SMILES,% Inhibition,Z score
O=C(O)C1CC2CCCCC2N1S(=O)(=O)c1cccc(F)c1F (configuration not stated),1%,-0.31
Nc1nc(C2CC(N)C2)cc(N2CCC(Oc3ccccc3Cl)CC2)n1 (configuration not stated),50%,-7.79
CCOc1ccc2c(c1)cc(C(=O)N1CCCC1)n2C,-5%,0.65
Cc1nc(C(=O)NCc2ccccn2)c(-c2ccccc2)s1,-1%,0.22
c1nc(-c2csc(N3CCOCC3)n2)co1,-4%,0.6
CO[C@H]1COC[C@H]1NC(=O)N1CCCC1c1cccs1 (some centres not stated),-4%,0.7
Cc1nc(N2CCC[C@H](C(=O)NCc3cccc(F)c3)C2)c2c(C)c(C)oc2n1,-7%,0.72
CCn1ncnc1[C@H]1CC(=O)Nc2[nH]nc(-c3cccs3)c21,2%,-0.36
Cc1cn2nc(C(=O)NCc3cccs3)cc2c(N2CCCC2)n1,5%,-0.76
COc1cccc(-c2n[nH]c3c2CN(C(=O)c2c(C)noc2C)CC3)c1,-9%,1.17
O=C(O)CN(Cc1ccc(CO)cc1)Cc1ccc(Cl)s1,6%,-0.75
c1cc([C@H]2CCCN(c3ncnc4c3CCC4)C2)[nH]n1,7%,-0.92
CCC(C)C(C)(O)CNC(=O)C(=O)Nc1ccc(F)cc1C (configuration not stated),-10%,1.21
C[C@]1(c2ccc3c(c2)OCCCO3)NC(=O)N(CC(=O)N2CCN(S(=O)(=O)c3ccc(F)c(F)c3)CC2)C1=O,-7%,1.39
COc1cc(OC)cc(C(=O)Nc2ccc3c(c2)C(=O)N2CCC[C@H]2C(O)=N3)c1,24%,-2.11
COCCN1CC2(CCC1=O)CCN(c1nc(C)cc(C)n1)CC2,-7%,0.6
Cc1ccc(-c2nn(-c3ccccc3)cc2C(=O)N2CCC(C)CC2)o1,-5%,0.6
CCc1sc(Nc2ccc(C)cc2)nc1-c1c(C)n(C)n(-c2ccccc2)c1=O,-30%,3.57
Cc1oc(-c2cnn(C)c2)nc1C(=O)Nc1cc(F)ccc1OC(C)C,-10%,1.61
Cn1c(C2CC2)nnc1N1CCC[C@]2(CC=CCC2)C1,-6%,0.99
CCOC(=O)CCC(=O)Nc1ccc(C(N)=O)c(Cl)c1,3%,-0.4
CC(C)NC(=O)C1CCCC(NC(=O)CC2(O)CCCCC2)C1 (configuration not stated),-10%,1.42

SMILES,% Inhibition,Z score
COC(=O)N1CCCC(C(C)NC(=O)c2scc(C)c2Cl)C1 (configuration not stated),-14%,1.46
O=C([C@@H]1COCCO1)N1CCC=C(F)C1,-5%,0.69
Cc1cc(CC(=O)N2CC[C@@H](O)C2)n[nH]1,4%,-0.42
C[C@H]1C(=O)NCCCN1C(=O)c1ccc(Br)cn1,-7%,0.69
O=C(c1ccc2[nH]cnc2c1)N1CCc2[nH]nc(-c3cc(F)ccc3F)c2C1,7%,-0.99
c1cc(-c2nc3ccccc3o2)c2ccncc2c1,-2%,0.32
CC(C)(C)OC(=O)N[C@H](c1nc(Cc2cccnc2)no1)C1CCC1,-3%,0.53
Cc1noc(C)c1S(=O)(=O)N1CC(N2CC(F)(F)C[C@H]2COCc2ccccc2)C1,-18%,2.14
Cc1cc(C)cc(NC(=O)C2CCN(c3cc(C)nc4c(-c5ccc(Cl)cc5)c(C)nn34)CC2)c1,-12%,1.53
C#CCOc1ccc([C@H]2CC(=O)Nc3ccsc32)cc1OC,24%,-3.41
O=C1CN(c2ccc(CNC(=O)N3CCCCCCC3)cc2)CCN1,-16%,1.64
CC(C)(C)CC(=O)NC[C@H]1OC[C@@H](NC2COC2)[C@@H]1O,-14%,2.2
Cn1nc(C2CC2)cc1CNC(=O)[C@@H]1COCC[C@@H]1c1ccccc1,8%,-1.08
Cc1cc(NC(=O)NCC2C(C)OC(C)(C)N2C(=O)OC(C)(C)C)no1 (configuration not stated),1%,-0.1
Cc1c(Cl)cccc1NC(=O)CCC(=O)N1CCCN(c2nc3cccnc3s2)CC1,-3%,0.26
COC(=O)c1ccc(C(=O)N2CCCC2C2CC(C)CCC2O)cc1 (configuration not stated),4%,-0.53
COc1cc(C(=O)N2CCCN(C3CCOCC3)CC2)ccc1F,3%,-0.25
CN(Cc1nc2ccccc2s1)c1ccn(C)n1,-6%,1.29
C[C@H](NCC(=O)NCc1ccc(F)cc1)C1CCOCC1,-6%,0.79
Cc1ccc(C(=O)NCCC2(O)CCCC2)cn1,-27%,2.38
